Experimental data taken from PubChem BioAssay AID488969 (Vanderbilt High Throughput Screening Facility, 2010).
In all, about 110,000 compounds were measured (“z-score”: median about -0.1, highest 2% from about 2 on). The list shows a part of the results. The source made the active and inactive calls.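 How the source made its calls: active means z-score in the third read window above 3 or below -3; inactive means the rest.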

The compounds below were run against Metabotropic glutamate receptor 8 (Rattus norvegicus) (UniProt P70579) (assay: mGluR8 Gi/Go-coupled signaling modulation – cell-based, rat, thallium flux, HTS, primary screen (AID 488969)). Details: HEK293 rat mGluR8, GIRK (G protein-gated inwardly rectifying potassium channel) thallium flux, FluoZin2; at 10 µM; stronger effect = higher value; submaximal glutamate (EC20) added with thallium.
UniProt P70579, sequence (P70579 whole entry, looked up): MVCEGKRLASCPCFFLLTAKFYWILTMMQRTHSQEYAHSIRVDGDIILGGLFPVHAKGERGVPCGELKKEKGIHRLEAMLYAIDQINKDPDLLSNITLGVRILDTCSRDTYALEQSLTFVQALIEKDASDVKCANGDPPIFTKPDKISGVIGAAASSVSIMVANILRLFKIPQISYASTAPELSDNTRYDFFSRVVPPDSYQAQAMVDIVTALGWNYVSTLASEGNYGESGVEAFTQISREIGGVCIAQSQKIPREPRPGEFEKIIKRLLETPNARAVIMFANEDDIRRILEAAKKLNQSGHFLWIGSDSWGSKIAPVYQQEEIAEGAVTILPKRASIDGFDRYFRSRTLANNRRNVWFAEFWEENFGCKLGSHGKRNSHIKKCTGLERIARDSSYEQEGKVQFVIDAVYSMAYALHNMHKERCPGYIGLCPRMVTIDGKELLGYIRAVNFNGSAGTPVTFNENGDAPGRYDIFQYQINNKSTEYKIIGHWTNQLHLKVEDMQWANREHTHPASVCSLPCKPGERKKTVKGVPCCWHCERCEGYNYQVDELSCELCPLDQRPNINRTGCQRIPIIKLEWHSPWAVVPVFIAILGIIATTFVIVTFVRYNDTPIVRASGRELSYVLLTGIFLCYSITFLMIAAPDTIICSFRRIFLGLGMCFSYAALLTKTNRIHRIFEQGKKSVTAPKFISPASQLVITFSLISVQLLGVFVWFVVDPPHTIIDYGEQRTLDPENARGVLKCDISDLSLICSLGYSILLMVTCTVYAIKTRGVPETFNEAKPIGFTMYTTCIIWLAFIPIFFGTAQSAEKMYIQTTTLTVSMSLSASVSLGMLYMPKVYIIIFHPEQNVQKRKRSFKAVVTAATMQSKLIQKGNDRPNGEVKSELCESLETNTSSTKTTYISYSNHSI

Structure (SMILES) | z-score
CC(C)CCNc1nnnc2c1sc1nc(N3CCOCC3)c3c(c12)CC(C)(C)SC3 | -0.222
Cc1nn(Cc2ccccc2)c(=O)n1N(C)c1ncc(C(F)(F)F)cc1Cl | -0.209
COc1ccc(/C=N/n2c(C)nnc2C)c(OC)c1 | -0.105
CN(CCOc1ccccc1)c1ccc(S(=O)(=O)N2CCCCC2)cn1 | -0.471
CCOC(=O)C(C)(C)Sc1nc2c(cnn2-c2ccc(Cl)cc2)c(=O)[nH]1 | -0.781
O=C(COC(=O)c1ccccc1-c1nc2ccccc2s1)NC1CCS(=O)(=O)C1 (stereo not drawn) | 0.11
COc1ccc(C(=O)Nc2ccc(F)cc2F)cc1 | -0.284
O=c1oc(-c2ccccc2[N+](=O)[O-])nc2ccccc12 | -1.17
CCN(CC)S(=O)(=O)c1ccc2nc(SC)sc2c1 | -0.259
Cc1nc(SCC(=O)NCCc2ccc(Cl)cc2)nc(C)c1C | 0.124
CCOC(=O)N1CCC(NC(=O)C2CCC(Cn3c(=O)[nH]c4ccccc4c3=O)CC2)CC1 (stereo not drawn) | -1
O=C(c1cc2c(s1)CCCCC2)N1CCN(c2ncccn2)CC1 | -0.923
CC(C)OC(=O)CC(=O)CSc1nc(-c2ccc(F)cc2)cc(-c2ccccc2)c1C#N | 0.0859
Cc1cc(NC(=O)c2cc3n(n2)C(C(F)(F)F)CC(c2ccco2)N3)n(-c2ccccc2)n1 (stereo not drawn) | -0.368
COC(=O)c1cn(CC(=O)NC2CCCCCC2)c2ccccc12 | -0.191
CCOC(=O)c1ccc(NC(=O)Nc2ccc(OC)c(OC)c2)cc1 | active: 6.79
CCOC(=O)c1ccc(NCc2ccc3c(c2)OCO3)cc1 | 0.158
O=C(Nc1cccc(Oc2ccc3c(c2)C(=O)NC3=O)c1)c1cccs1 | 0.83
CC(C)(C)C(=O)Nc1cccc(-c2nc3ccccc3c(=O)o2)c1 | -1.19
O=C(NCCOc1ccccc1Cl)C(=O)Nc1ccccc1 | -0.00117
CC(=O)Nc1nc(SCCCc2ccccc2)n[nH]1 | 0.0586
COCCn1c(SCC(=O)Nc2cccc(S(N)(=O)=O)c2)nc2ccccc21 | -0.157
C=CCNc1oc(-c2ccc(OCC)cc2)nc1C#N | 0.0195

Structure (SMILES) | z-score
Fc1ccc(NCc2cccnc2)cc1 | 0.127
COc1cccc(C2C=C(Nc3ccccc3)C(=O)N2c2ccccc2)c1 (stereo not drawn) | -0.22
Cc1cccc(S(=O)(=O)N(CC(=O)Nc2ccccc2C)Cc2ccco2)c1 | -0.15
CN(c1ccc(C(=O)Nc2ccccc2Sc2ccccc2)cc1)S(C)(=O)=O | -0.6
C=C(C)CSc1nnc(-c2ccc(OC)cc2)n1N | -0.0581
Cc1csc(N(C(=O)c2cccc(S(=O)(=O)N(C)C)c2)c2ccccc2)n1 | 2.2
CC(C)Oc1ccc(/C=N/NC(=O)C2CCCN2S(=O)(=O)c2ccc(Cl)cc2)cc1 (stereo not drawn) | -0.222
O=C(Nc1ccc(F)cc1)c1cnc(-c2ccccc2)nc1-c1ccccc1 | -0.358
Cc1ccc(-n2nnnc2SCC(=O)N2c3ccccc3NC(=O)C2(C)C)cc1 | 1.5
CCOC(=O)/C(=N\Nc1ccc(C(C)=O)cc1)c1csc(Nc2ccccc2)n1 | -0.306
COc1ccc(-c2c(-c3ccc(OCC(=O)NN)cc3O)n[nH]c2C(F)(F)F)cc1 | -0.219
Nc1cc(N)nc(SCC(=O)c2ccccc2)n1 | -0.52
CC(C)OP(=O)(OC(C)C)C(Nc1ccccc1)c1ccc2c(c1)OCO2 (stereo not drawn) | -0.575
CCCn1cc(NC(=O)c2cc(-c3ccccc3)on2)cn1 | active: 13
Cc1nc2c(=O)n(C)c(=O)[nH]c2n1Cc1ccccc1 | 0.949
O=S(=O)(Nc1ccc(Oc2ncccn2)c(Cl)c1)c1ccc(Cl)cc1 | 0.13
COc1cccc(/C=N/NC(=O)c2ccc(-c3ccccc3)cc2)c1O | -0.388
O=C(CNC(=O)c1ccccc1F)NCCOc1ccccc1Cl | -0.065
CSc1nc2sc3c(c2c(=O)n1C)CCC(C)C3 (stereo not drawn) | -0.327
CCC(=O)NC(=S)Nc1cccc(NC(=O)c2ccc(Cl)cc2Cl)c1 | 0.179
C[N+]1(C)CCC(=C2c3ccccc3CC(=O)c3sccc32)CC1 | 0.586
CCOC(=O)c1sc2nc(C)cc(C)c2c1NC(=O)c1ccco1 | -0.351
O=C(Cc1cccs1)N1CCC(c2nc3c(nnn3Cc3ccccc3Cl)c(=O)[nH]2)CC1 | -0.576

Structure (SMILES) | z-score
O=S(=O)(Nc1ccc2c(c1)OCO2)c1ccc(Br)s1 | -0.167
C/C(=N/NC(=O)c1ccncc1)c1cc2ccc(O)cc2oc1=O | -0.853
CCCn1c(C)nc2c(c1=O)c1nc3ccccc3nc1n2CCc1ccccc1 | -0.0747
COc1ccc(NS(=O)(=O)c2cc(S(C)(=O)=O)ccc2C)cc1 | -0.235
Cc1cc(-c2n[nH]c(=S)n2CC(C)C)cs1 | -0.405
Cc1cc([N+](=O)[O-])cc2ncccc12 | -0.00222
O=C(CSc1ncn[nH]1)NCCc1ccccc1 | -0.498
CCOC(=O)N1CCN(c2cc(=O)n(-c3ccc(Br)cc3)c(=O)[nH]2)CC1 | -0.0571
COc1ccc(S(=O)(=O)Nc2ccc3ccccc3c2)cc1C | 1.03
CC1=CCC2C(=O)N(Cc3ccccc3)C(=O)C2C1 (stereo not drawn) | 0.201
COc1ccc(Oc2coc3cc(OC(=O)N4CCOCC4)ccc3c2=O)cc1 | -0.0315
NC(=O)CSc1nc2c(sc3ccccc32)c(=O)n1CCCN1CCOCC1 | 0.869
O=C(C(=O)N1CCc2ccccc2C1)c1cn(CC(=O)N2CCCC2)c2ccccc12 | -0.571
COc1ccc(NC(=O)Cn2nc(C(F)(F)F)c3c2CCCC3)cc1OC | 0.0715
COc1ccccc1NC(=O)CCSc1nnnn1C | 1.32
CN(C)S(=O)(=O)N(CC(=O)Nc1ccccc1)c1ccccc1 | 0.311
OC1C=CSc2nc3ccccc3n21 (stereo not drawn) | -0.0235
Cc1nnc(SCC(=O)Nc2nc(C(C)(C)C)cs2)s1 | -0.16
CCOc1ccc(N(CC(=O)NCc2cccc(OC)c2)S(=O)(=O)c2c(C)noc2C)cc1 | -0.132
CCc1ccc(NC(=O)C2CC=CCC2C(=O)O)cc1 (stereo not drawn) | 1.44
O=C(Cn1cc2c(n1)CCCC2)NCCCN1CCN(c2ccccc2F)CC1 | -0.167
COc1ccc(Nc2nnc(Cc3ccccc3)c(=O)[nH]2)c(OC)c1 | 1.92
COc1ccc(S(=O)(=O)N(CC(=O)NC2CC2)c2ccc(C)cc2)cc1OC | -0.013

Structure (SMILES) | z-score
CNC(=S)NNC(=O)Cc1ccc(OC)c(OC)c1 | -0.464
C=CCSc1nc2ccccc2c(=O)[nH]1 | -0.169
CC(CN1CCN(C)CC1)OC(=O)c1ccc(Cl)cc1 (stereo not drawn) | 1.05
Nc1ncc(Br)cc1S(=O)(=O)NCCC(=O)N1CCN(c2ncccn2)CC1 | -0.173
CCOc1ccc(N2C(=O)CC(n3nc(C)cc3C)C2=O)cc1 (stereo not drawn) | 0.0925
CCOC(=O)c1ccc(NC(=O)NCc2ccncc2)cc1 | -0.0612
COc1ccccc1NC(=O)COc1ccccc1C(=O)c1cnn(-c2ccccc2)c1 | -0.425
COCCNC(=O)Nc1ccc2c(c1)N(C)C(=O)CS2 | -0.0391
COc1ccccc1CNCc1ccc(OC)c(OC)c1OC | 2.07
Cc1ccc(C(C)C)c(OCc2nc(-c3nonc3N)no2)c1 | 0.353
Cc1c(Cl)cccc1NC(=O)CCN1CCCCCC1 | 0.221
COc1ccc(C(=O)Cc2cc(OC)c(OC)cc2[N+](=O)[O-])cc1 | 0.0666
COc1ccc(N=C2S/C(=C\c3ccc(C)o3)C(=O)N2CC(C)C)cc1 | -0.143
O=c1c2cnn(-c3ccccc3Cl)c2ncn1Cc1cccnc1 | -0.445
Cn1c(NCCCO)nc2c1c(=O)n(Cc1ccccc1F)c(=O)n2C | -0.16
C/C(=C\c1ccccc1)CN1CCN(c2ccccc2F)CC1 | 0.326
COc1cc(Cn2c(-c3nonc3N)nc3ccccc32)ccc1C | -0.0177
COc1ccc(C(=O)NC(=S)Nc2ccccc2N2CCCCC2)cc1[N+](=O)[O-] | 0.366
COC(=O)C1CCN(C(=O)CSc2nnc(-c3ccncc3)o2)CC1 | -0.184
O=C(NCCCCCCNC(=O)NCc1ccco1)NCc1ccco1 | 0.295
CC(Oc1ccc(Cl)cc1Cl)C(=O)Nn1cnnc1 (stereo not drawn) | 1.17
O=C(CNc1ccccc1)N/N=C/c1ccc([N+](=O)[O-])cc1 | -0.176
c1ccc2c(c1)[nH]c1c(N3CCN(C4CCCCC4)CC3)ncnc12 | -0.385

Structure (SMILES) | z-score
Cc1ccc(NC(=O)C2CCCO2)cc1[N+](=O)[O-] (stereo not drawn) | -0.12
COc1ccc(OC)c(S(=O)(=O)N2CCC(C(=O)N3CCc4ccccc4C3)CC2)c1 | 0.145
O=C(COC(=O)c1c(Cl)cccc1Cl)Nc1ccccc1Br | -1.12
Cc1nc(NC(C)c2ccccc2)c2oc3ccccc3c2n1 (stereo not drawn) | -0.398
CC(C(=O)NCc1ccccn1)N1C(=O)c2ccccc2C1=O (stereo not drawn) | 0.197
Cc1ccccc1C(=O)NC(=S)NCC(=O)c1ccccc1 | -0.0957
O=C(NC1CCCC1)c1c[nH]c2ccc(F)cc2c1=O | 0.0974
O=S(=O)(NCC1CCCO1)c1ccc(S(=O)(=O)N(Cc2ccccc2F)C2CCCCC2)cc1 (stereo not drawn) | -0.337
CC(C)OC(=O)CSc1nc(-c2ccc(F)cc2)nc2ccc(F)cc12 | -0.284
CCOC(=O)c1c(C)n(C)c2ccc(OC(=O)c3ccco3)cc12 | -0.000103
Cc1cccnc1NC(=O)C1c2ccccc2Oc2ccccc21 | -0.223
CCC(C(=O)NC1CCCC1)N(C(=O)Cn1nnc(-c2cccs2)n1)c1cnc2ccccc2c1 (stereo not drawn) | -0.032
COc1ccccc1N(CC(=O)NC(C)(C)C)C(=O)Cn1nnc(-c2ccc(C)o2)n1 | -0.399
O=C1OCc2ccc(NC(=O)C3CCCCC3)cc21 | -0.143
N#CCCn1cc(/C=N/NC(=O)c2ccncc2)c(-c2ccccc2)n1 | -0.132
CCOC(=O)CN(c1ccccn1)S(=O)(=O)c1ccccc1 | -0.0819
Nc1cc(=O)[nH]c(SCc2nnc(-c3ccccc3)o2)n1 | -0.00413
CCC(=O)n1nc(-c2ccccc2)nc1NCc1ccccc1 | -0.0763
CC(OC(=O)CNC(=O)C12CC3CC(CC(C3)C1)C2)C(=O)Nc1ncc(Cl)cc1Cl (stereo not drawn) | -0.644
COCC(=O)Nc1ccc(OCc2ccccc2)cc1 | -0.276
COC(=O)c1ccc(Cn2nc(C(F)(F)F)cc2C)cc1 | -0.0701
